Data on 9 compounds can be found in PubChem BioAssay AID248 (DTP/NCI, 2004).

For this test, the system named is L1210 leukemia ip in BDF1 mice, survival T/C. Description: NCI In Vivo Anticancer Drug Screen. Data for tumor model L1210 Leukemia (intraperitoneal) in B6D2F1 (BDF1) mice. The settings on record: endpoint: mean survival time, higher = longer survival.

Inconclusive results and toxic doses are left out. For part of its entries the source gives two or more results. This is not the full list of results. An entry can have further records. Results that share an entry are repeated measurements in other runs, samples, wells, individuals or studies. Brackets tell where a record comes from. Letters hold for one entry only.

Regarding `CCN(CCO)CC(C)Nc1ccc([N+](=O)[O-])c2sc3ccccc3c(=O)c12` (stereo unspecified), the T/C is, setting by setting: (dose: 27.0 mg/kg/injection, schedule: Q01DX Z (ip), vehicle: saline) 93 % of control and 152 % of control; (dose: 40.5 mg/kg/injection, schedule: Q01DX Z (ip), vehicle: saline) 93 % of control and 172 % of control.

Turning to `CC1(N)COP(=O)(Nc2ccccc2)OC1` (stereo unspecified), the T/C (dose: 100.0 mg/kg/injection, schedule: Q01DX001 (ip), vehicle: carboxymethylcellulose (CMC)) was 104 % of control and 152 % of control.

Regarding `O=C(CCc1ccc(C(=O)Nc2ccc(C3=NCCN3)cc2)cc1)Nc1ccc(C2=NCCN2)cc1`, for the setting “dose: 120.0 mg/kg/injection, schedule: Q01DX Z (ip), vehicle: carboxymethylcellulose (CMC)”, the T/C is 109 % of control and 189 % of control.

In the case of `Nc1nc(N)c2cc(CNc3ccc(C(=O)NC(CCCC(=O)O)C(=O)O)cc3)ccc2n1` (stereo unspecified), the T/C (dose: 1.0 mg/kg/injection, schedule: Q01DX009 (ip), vehicle: saline) is 114 % of control and 150 % of control.

For `Cc1cc(C)c(NC(=O)/C=C/C(=O)O)c(C)c1`, the T/C (dose: 400.0 mg/kg/injection, schedule: Q04DX002 (ip), vehicle: saline with Tween-80) is 103 % of control and 150 % of control.

As for `O=c1nc(NC(=S)Nc2ccn(C3OC(CO)C(O)C3O)c(=O)n2)ccn1C1OC(CO)C(O)C1O` (stereo unspecified), for the setting “dose: 200.0 mg/kg/injection, schedule: Q01DX001 (ip), vehicle: water”, the T/C is 120 % of control [sample A] and 164 % of control [sample B].

Take `CO[C@H]1Nc2c(ccc(C)c2O)C(=O)N2C=C(/C=C/C(N)=O)C[C@@H]12`: for the setting “dose: 1.0 mg/kg/injection, schedule: Q01DX001 (ip), vehicle: saline”, the T/C is reported as 114 % of control, 119 % of control, 156 % of control.

For the compound `CC(=O)c1cc(CN(CCCl)CCCl)c(O)c(CN(CCCl)CCCl)c1O`, the T/C (dose: 15.0 mg/kg/injection, schedule: Q01DX009 (ip), vehicle: carboxymethylcellulose (CMC)) was 123 % of control and 170 % of control.

Turning to `CCN(O)C(N)=O`, the T/C (dose: 268.0 mg/kg/injection, schedule: Q01DX009 (ip), vehicle: saline) is 112 % of control and 155 % of control; the T/C (dose: 400.0 mg/kg/injection, schedule: Q01DX009 (ip), vehicle: saline) is 120 % of control and 168 % of control.
